Source: PubChem BioAssay AID924 (National Center for Advancing Translational Sciences (NCATS), 2007)
In all, about 130,000 compounds went through this assay and about 1,200 (0.92%) were called active. Inconclusive results, whose numbers are uncertain, are shown with a selection of clear calls. The call rests on the fitted dose curve; in most records, active means well fitted cell-killing curve with a large enough effect; inconclusive means small, poorly fitted or top-dose-only effect; inactive means no such curve, though single readings can be large or run the other way. Potencies of inconclusive entries are doubtful fits and often do not repeat.

Assay: qHTS Screen for Compounds that Selectively Target Cancer Cells with p53 Mutations: Cytotoxicity of p53ts Cells at the Permissive Temperature; further: nearly all actives have a fitted effect of over 55% in size
Conditions: H1299-p53A138V at 32C, ATP luminescence viability, 24 h; series mostly up to 46.1 µM
Outline: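 ATP-content luminescence (ATPlite) read-out after 24 h compound exposure at 32C in H1299-p53A138V cells (600/well). Tested up to 46 uM. Normalized to DMSO (0%) and 100 uM tamoxifen (100% killing); Hill-fit AC50.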
Potency means the concentration at half of the fitted maximal effect; tags describe the fitted curve by direction and shape.

| Structure (SMILES) | Potency |
| --- | --- |
| COc1cc(OC)cc(C(=O)Nc2nc(-c3nnn(-c4ccc(F)c(Cl)c4)c3C)ns2)c1 | inconclusive: 31.6 µM [cytotoxic, single point] |
| O=C(Nc1ccc2oc(-c3cc(Br)ccc3Cl)nc2c1)c1ccc2ccccc2c1 | inconclusive: 31.6 µM [cytotoxic, single point] |
| O=C(CSc1ncc2c(n1)-c1ccccc1N(Cc1ccc(F)cc1)S2(=O)=O)NCc1ccccc1 | inactive |
| COc1cc(NS(=O)(=O)c2ccc(NC(=O)c3ccc(C(C)=O)cc3)cc2)nc(OC)n1 | inactive |
| COc1ccc(NC(=O)c2sc3nc4c(cc3c2N)CCCCCC4)cc1Cl | inconclusive: 31.6 µM [cytotoxic, single point] |
| Cc1ccc(NC(=O)Nc2ccc3nc(N4CCN(C)CC4)cc(C)c3c2)cc1C | inconclusive: 25.1 µM [cytotoxic, single point] |
| Cc1ccc2nc(-c3sc4nc(C)cc(C)c4c3N)[nH]c2c1 | inconclusive: 14.1 µM [cytotoxic, partial curve, poor fit] |
| c1cncc(-c2nnc(-c3cccnc3)nn2)c1 | inconclusive: 25.1 µM [cytotoxic, single point] |
| O=c1c(-c2ccccc2)nc2cnc(Oc3cccc(Cl)c3)nc2n1C1CC1 | inactive |
| CCCC(=O)Nc1cnc(NC(=O)c2cccc(F)c2)cc1C | inconclusive: 10 µM [cytotoxic, partial curve] |
| COc1ccc(CN(C(=O)CSc2nnc(-c3c[nH]c4ccccc34)o2)c2ccc(F)cc2)cc1OC | inconclusive: 25.1 µM [cytotoxic, single point] |
| Cc1ccc2nc(/C(C#N)=C/c3ccc(-c4ccc(F)cc4F)o3)[nH]c2c1 | active: 6.31 µM |
| CC1(C)Oc2ccc(NC(=O)C3COc4ccccc4O3)cc2O1 (stereo not drawn) | inconclusive: 10 µM [cytotoxic, partial curve] |
| COCc1cc(=O)n2c(-c3ccc(C)cc3)n[nH]c2n1 | active: 10 µM |
| CC(=O)Nc1ccc(NC(=O)c2ccco2)cc1 | inconclusive: 15.8 µM [cytotoxic, partial curve] |
| CCCCc1ccc(-c2ccc(C)cc2O)nc1 | active: 12.6 µM |
| CCC(=O)Nc1cccc(-c2cn3c(C)csc3n2)c1 | inconclusive: 0.005 µM [cytotoxic, full curve, poor fit] |
| NC(=O)c1ccsc1NC(=O)COc1ccccc1 | inconclusive: 12.6 µM [cytotoxic, single point] |
| COc1ccccc1OCC(=O)Nc1cc(-c2ccc(C)cc2)no1 | inconclusive: 15.8 µM [cytotoxic, single point] |
| Cc1cccc(Oc2nc3c(c(=O)n(C)c(=O)n3C)n2C)c1C | inactive |
| CCn1cc(C(=O)O)c(=O)c2cc(F)c(N3CCN(S(=O)(=O)c4ccc(NC(=O)OC)cc4)CC3)cc21 | inconclusive: 0.0079 µM [cytotoxic, full curve, poor fit] |
| Cc1nc2c(C(=O)NCc3ccc4c(c3)OCO4)c[nH]n2c(=O)c1Cc1ccccc1F | inconclusive: 25.1 µM [cytotoxic, single point] |

| Structure (SMILES) | Potency |
| --- | --- |
| O=C(CS(=O)(=O)c1ccccc1)c1ccc2c(c1)OCCO2 | inconclusive: 31.6 µM [cytotoxic, single point] |
| O=C(N/C(=C/c1cccnc1)C(=O)N1CCOCC1)c1ccccc1Br | inconclusive: 0.178 µM [cytotoxic, full curve, poor fit] |
| COc1cccc2sc(Nc3nnc(-c4ccccc4Cl)o3)nc12 | inconclusive: 20 µM [cytotoxic, single point] |
| CC(=O)c1cccc(Nc2c3c(nc4nc(-c5cccs5)nn24)CCCC3)c1 | inconclusive: 25.1 µM [cytotoxic, single point] |
| COc1ccc(NC(=O)CCc2c(C)nc3c(-c4ccccc4)c(C)nn3c2C)cc1Cl | inactive |
| CCOc1ccc2nc(N3CCCC(C(=O)NCc4ccc(OC)cc4)C3)sc2c1 (stereo not drawn) | inconclusive: 12.6 µM [cytotoxic, partial curve] |
| CC(C)S(=O)(=O)c1oc(-c2ccc(F)cc2)nc1S(=O)(=O)c1ccc(F)cc1 | active: 5.01 µM |
| Cc1cccc(OCC(=O)N(Cc2cccc(Cl)c2)Cc2ccco2)c1C | inactive |
| Cc1ccc2c(c1)cc1c(=O)n(CC(=O)NCc3ccco3)nc(C)n12 | inactive |
| COc1cc2c(C(=O)N3CCCc4ccccc43)cn(C)c(=O)c2cc1OC | inconclusive: 0.316 µM [cytotoxic, full curve, poor fit] |
| Cc1nc(SCC(=O)Nc2c(C)n(C)n(-c3ccccc3)c2=O)n[nH]1 | inconclusive: 3.55 µM [cytotoxic, full curve, poor fit] |
| CCCC(=O)Oc1c(Sc2ccc(Cl)cc2)c(C)nn1-c1ccccc1 | inconclusive: 6.31 µM [cytotoxic, partial curve] |
| CC(C)(C)c1ccc(OCCSc2nc(-c3cccs3)nc3cc(=O)[nH]n23)cc1 | inactive |
| COc1ccc(N2CCN(c3ncnc4c3nnn4Cc3ccccc3Cl)CC2)cc1 | inconclusive: 5.62 µM [cytotoxic, single point] |
| C=CCOc1c(CNc2nccs2)cccc1OCC | inconclusive: 12.6 µM [cytotoxic, partial curve] |
| CCC(=O)Nc1ccc(NC(=O)c2ccccn2)cn1 | inconclusive: 20 µM [cytotoxic, partial curve] |
| Cc1ccc(NC(=O)c2ccc(OC(=O)c3ccco3)cc2)cc1 | inconclusive: 15.8 µM [cytotoxic, partial curve] |
| Oc1ccccc1-c1cc(-c2ccc3c(c2)OCCO3)n[nH]1 | active: 12.6 µM |
| Cc1ccc(-c2nc3ccccc3o2)cc1NC(=O)c1ccc2c(c1)OCO2 | inconclusive: 31.6 µM [cytotoxic, single point] |
| CCn1c(=O)c2sccc2n2c(CCCC(=O)Nc3ccc(Oc4ccccc4)cc3)nnc12 | inconclusive: 35.5 µM [cytotoxic, single point] |
| COc1ccc(-c2nc(-c3ccccc3)no2)c(OC)c1 | active: 5.01 µM |
